Experimental data published in publication PMC6796939.
These are yes or no findings as the source states them, for the method shown. In cells and extracts the contact can be indirect. Some binding calls cover weakened binding; strength is not graded here. Where a sequence is shown, tags or fusion partners need not be part of it.

Tests used:
Test in all cases: co-IP; S2 cells co-transfected with tagged constructs; lysed in NP-40 buffer (50 mM Tris-Cl pH 8.0, 0.1 M NaCl, 1% NP-40, 10% glycerol, 1.5 mM EDTA) at 4 °C; primary antibody (anti-V5, anti-HA, anti-Flag) 2 h, protein A/G 1 h; western blot; some panels with or without Hh (Hh plasmid and Hh conditioned medium), some with dsRNA against ptc 5'UTR to knock down endogenous Ptc
[1] = target: T1, PtcWT-6xmyc (Drosophila) (UniProt P18502)
T1 sequence: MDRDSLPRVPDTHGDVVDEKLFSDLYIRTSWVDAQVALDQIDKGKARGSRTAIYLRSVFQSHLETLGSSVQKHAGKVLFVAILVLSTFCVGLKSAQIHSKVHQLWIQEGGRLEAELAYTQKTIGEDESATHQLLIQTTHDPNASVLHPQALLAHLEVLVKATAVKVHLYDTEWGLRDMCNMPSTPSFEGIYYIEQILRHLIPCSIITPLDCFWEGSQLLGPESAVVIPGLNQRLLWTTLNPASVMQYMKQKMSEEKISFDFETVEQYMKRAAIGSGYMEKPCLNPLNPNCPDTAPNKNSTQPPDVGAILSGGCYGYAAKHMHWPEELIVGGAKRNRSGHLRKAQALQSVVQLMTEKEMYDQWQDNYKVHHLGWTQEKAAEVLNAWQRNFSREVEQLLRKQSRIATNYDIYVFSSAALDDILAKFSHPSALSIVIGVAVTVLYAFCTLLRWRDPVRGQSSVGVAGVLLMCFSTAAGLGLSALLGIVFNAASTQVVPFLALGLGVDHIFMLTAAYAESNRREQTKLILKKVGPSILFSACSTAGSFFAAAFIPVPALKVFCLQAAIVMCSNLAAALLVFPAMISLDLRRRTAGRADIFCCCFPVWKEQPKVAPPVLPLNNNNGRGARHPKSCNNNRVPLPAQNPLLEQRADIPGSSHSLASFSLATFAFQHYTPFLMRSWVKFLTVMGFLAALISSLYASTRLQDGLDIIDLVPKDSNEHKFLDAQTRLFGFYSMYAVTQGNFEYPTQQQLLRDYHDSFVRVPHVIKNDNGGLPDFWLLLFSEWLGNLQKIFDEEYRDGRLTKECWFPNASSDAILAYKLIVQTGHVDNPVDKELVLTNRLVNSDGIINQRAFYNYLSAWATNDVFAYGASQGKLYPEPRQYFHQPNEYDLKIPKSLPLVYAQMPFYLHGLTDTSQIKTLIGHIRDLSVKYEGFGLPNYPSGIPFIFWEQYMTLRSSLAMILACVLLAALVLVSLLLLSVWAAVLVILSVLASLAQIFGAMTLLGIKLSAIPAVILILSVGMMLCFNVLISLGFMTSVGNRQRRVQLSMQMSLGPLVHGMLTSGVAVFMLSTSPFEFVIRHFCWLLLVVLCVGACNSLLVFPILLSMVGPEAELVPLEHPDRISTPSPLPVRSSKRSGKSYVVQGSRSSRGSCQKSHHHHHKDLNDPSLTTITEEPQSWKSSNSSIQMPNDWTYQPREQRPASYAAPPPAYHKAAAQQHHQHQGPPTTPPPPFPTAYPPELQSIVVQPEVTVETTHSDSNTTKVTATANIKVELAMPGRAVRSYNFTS

[2] = target: T2, Ptc-C4-V5 (Drosophila) (UniProt P18502)
T2 sequence: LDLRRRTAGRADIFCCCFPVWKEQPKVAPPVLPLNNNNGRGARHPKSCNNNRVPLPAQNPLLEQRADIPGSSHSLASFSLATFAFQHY

[3] = target: T3, PtcWTΔC7-V5 (Drosophila) (UniProt P18502)
T3 sequence: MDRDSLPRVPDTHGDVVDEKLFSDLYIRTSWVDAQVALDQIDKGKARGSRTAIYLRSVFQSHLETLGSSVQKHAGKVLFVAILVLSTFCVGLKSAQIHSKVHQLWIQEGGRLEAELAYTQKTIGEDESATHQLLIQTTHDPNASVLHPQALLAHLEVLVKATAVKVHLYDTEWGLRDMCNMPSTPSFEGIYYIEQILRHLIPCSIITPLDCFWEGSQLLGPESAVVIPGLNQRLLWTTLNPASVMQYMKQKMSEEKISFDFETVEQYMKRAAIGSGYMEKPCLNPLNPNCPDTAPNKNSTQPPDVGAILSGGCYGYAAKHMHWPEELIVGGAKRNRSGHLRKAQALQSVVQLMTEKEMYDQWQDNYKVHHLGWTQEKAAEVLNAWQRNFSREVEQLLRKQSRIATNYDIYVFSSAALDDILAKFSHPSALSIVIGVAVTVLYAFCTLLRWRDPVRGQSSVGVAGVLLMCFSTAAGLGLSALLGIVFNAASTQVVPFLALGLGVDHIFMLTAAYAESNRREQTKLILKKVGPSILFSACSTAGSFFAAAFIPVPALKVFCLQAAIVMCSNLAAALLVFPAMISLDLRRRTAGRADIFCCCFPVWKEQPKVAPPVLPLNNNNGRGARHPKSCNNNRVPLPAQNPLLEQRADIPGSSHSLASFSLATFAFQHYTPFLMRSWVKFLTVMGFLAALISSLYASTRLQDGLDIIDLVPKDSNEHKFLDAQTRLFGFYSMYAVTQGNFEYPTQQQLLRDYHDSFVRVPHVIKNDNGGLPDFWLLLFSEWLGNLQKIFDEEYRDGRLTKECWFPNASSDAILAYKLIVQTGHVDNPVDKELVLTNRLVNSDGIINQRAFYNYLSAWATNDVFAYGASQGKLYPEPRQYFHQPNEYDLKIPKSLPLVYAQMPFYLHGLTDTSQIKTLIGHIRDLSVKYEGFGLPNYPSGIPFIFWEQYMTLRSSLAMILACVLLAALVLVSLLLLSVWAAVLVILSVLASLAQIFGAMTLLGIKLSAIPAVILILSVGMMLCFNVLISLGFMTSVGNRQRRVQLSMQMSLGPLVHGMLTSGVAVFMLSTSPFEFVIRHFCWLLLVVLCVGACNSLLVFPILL

Measured: binding

HA tagged PKAc (3XHA-PKAc) (from UniProt P12370 1-353) (enzyme)
binds: all assays above
